Assay results taken from the supplement of paper PMC4604168 (melanoma cell lines).
The other results are listed elsewhere or left out. Many values rest on one well or one pass, so single values are uncertain.

Legend:
Assay in all cases: cell count relative to DMSO control; melanoma cells; higher = more viable cells
Details in all cases: library dose: low library concentration; 72 h
[1] = system: MZ2-MEL
[2] = system: MeWo
[3] = system: RPMI7951
[4] = system: RVH-421
[5] = system: SkMel28
[6] = system: SkMel2
[7] = system: SkMel30
[8] = system: UACC62
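Note: cell number obtained by counting DAPI-stained nuclei in high-throughput microscope images with image analysis software, screen run in 1,536-well plates.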

Structure (SMILES) | cell count [1] [%] | cell count [2] [%] | cell count [3] [%] | cell count [4] [%] | cell count [5] [%] | cell count [6] [%] | cell count [7] [%] | cell count [8] [%]
COc1cc([C@@H]2c3cc4c(cc3[C@@H](O[C@@H]3O[C@@H]5CO[C@@H](C)O[C@H]5[C@H](O)[C@H]3O)[C@H]3COC(=O)[C@H]23)OCO4)cc(OC)c1O [etoposide] + CCN(CC)CCNC(=O)c1c(C)[nH]c(/C=C2\C(=O)Nc3ccc(F)cc32)c1C [sunitinib] (first compound 0.02 µM, partner dose 0.4 µM) | 94.8 | 93 | 90.3 | 114 | 97.3 | 96.7 | 104 | 92.2
C[C@]1(O)C[C@@H](c2nc(-c3ccc4ccc(-c5ccccc5)nc4c3)c3c(N)nccn32)C1 + Cn1c(Nc2ccc(C(F)(F)F)cc2)nc2cc(Oc3ccnc(-c4ncc(C(F)(F)F)[nH]4)c3)ccc21 [CHIR265] (first compound 0.4 µM, partner dose 0.08 µM) | 60.5 | 66.2 | 57 | 78.5 | 60.4 | 63.5 | 57.1 | 53.4
Cn1cnc2c(F)c(Nc3ccc(Br)cc3Cl)c(C(=O)NOCCO)cc21 [selumetinib] + CN1CCN(c2ccc3nc(-c4c(N)c5c(F)cccc5[nH]c4=O)[nH]c3c2)CC1 [Dovitinib] (first compound 0.015 µM, partner dose 0.1 µM) | 70.4 | 79.7 | 107 | 85.7 | 104 | 67.1 | 42.6 | 71.8
CCN(CC)CCNC(=O)c1c(C)[nH]c(/C=C2\C(=O)Nc3ccc(F)cc32)c1C [sunitinib] + CCCCCCCCc1ccc(CCC(N)(CO)CO)cc1 [fingolimod] (first compound 0.4 µM, partner dose 2 µM) | 98.8 | 67.9 | 88.7 | 108 | 77.8 | 105 | 71.4 | 92
CCN(CC)CCNC(=O)c1c(C)[nH]c(/C=C2\C(=O)Nc3ccc(F)cc32)c1C [sunitinib] + C=C(c1ccc(C(=O)O)cc1)c1cc2c(cc1C)C(C)(C)CCC2(C)C [Bexarotene] (first compound 0.4 µM, partner dose 2 µM) | 117 | 74.2 | 106 | 149 | 101 | 107 | 90.3 | 93.5
COc1cc([C@@H]2c3cc4c(cc3[C@@H](O[C@@H]3O[C@@H]5CO[C@@H](C)O[C@H]5[C@H](O)[C@H]3O)[C@H]3COC(=O)[C@H]23)OCO4)cc(OC)c1O [etoposide] + NC(=O)c1ccc(N(C(N)=O)c2c(F)cccc2F)nc1-c1ccc(F)cc1F [VX702] (first compound 0.02 µM, partner dose 0.4 µM) | 94.3 | 94.6 | 107 | 80.3 | 101 | 94.8 | 99.6 | 84
COc1cc([C@@H]2c3cc4c(cc3[C@@H](O[C@@H]3O[C@@H]5CO[C@@H](C)O[C@H]5[C@H](O)[C@H]3O)[C@H]3COC(=O)[C@H]23)OCO4)cc(OC)c1O [etoposide] + Cc1cc(Nc2cc(N3CCN(C)CC3)nc(/C=C/c3ccccc3)n2)n[nH]1 [ENMD2076] (first compound 0.02 µM, partner dose 0.04 µM) | 96.2 | 90.9 | 102 | 79.6 | 87 | 99.1 | 101 | 82.7
C[C@]1(O)C[C@@H](c2nc(-c3ccc4ccc(-c5ccccc5)nc4c3)c3c(N)nccn32)C1 + Cc1cc(Nc2cc(N3CCN(C)CC3)nc(/C=C/c3ccccc3)n2)n[nH]1 [ENMD2076] (first compound 0.4 µM, partner dose 0.04 µM) | 98.8 | 101 | 101 | 107 | 98.3 | 91.2 | 76 | 72.5
C[C@]1(O)C[C@@H](c2nc(-c3ccc4ccc(-c5ccccc5)nc4c3)c3c(N)nccn32)C1 + Nc1cccc2c1CN(C1CCC(=O)NC1=O)C2=O [lenalidomide] (first compound 0.4 µM, partner dose 1 µM) | 95.2 | 98.1 | 86.6 | 85 | 94.3 | 81.5 | 96.4 | 102
Cn1cnc2c(F)c(Nc3ccc(Br)cc3Cl)c(C(=O)NOCCO)cc21 [selumetinib] + Cc1cc(Nc2cc(N3CCN(C)CC3)nc(/C=C/c3ccccc3)n2)n[nH]1 [ENMD2076] (first compound 0.015 µM, partner dose 0.04 µM) | 86.5 | 84.5 | 102 | 95.2 | 93.5 | 0.251 | 73.2 | 65.5
C[C@]1(O)C[C@@H](c2nc(-c3ccc4ccc(-c5ccccc5)nc4c3)c3c(N)nccn32)C1 + CS(=O)(=O)CCNCc1ccc(-c2ccc3ncnc(Nc4ccc(OCc5cccc(F)c5)c(Cl)c4)c3c2)o1 [lapatinib] (first compound 0.4 µM, partner dose 0.8 µM) | 99.1 | 91.1 | 93.5 | 119 | 97.5 | 83.9 | 74.6 | 84.8
Cn1cnc2c(F)c(Nc3ccc(Br)cc3Cl)c(C(=O)NOCCO)cc21 [selumetinib] + Cn1nnc2c(C(N)=O)ncn2c1=O [temozolomide] (first compound 0.015 µM, partner dose 2 µM) | 83.4 | 100 | 98 | 82.6 | 84.4 | 65.1 | 59.8 | 65.1
Cn1cnc2c(F)c(Nc3ccc(Br)cc3Cl)c(C(=O)NOCCO)cc21 [selumetinib] + Cn1c(Nc2ccc(C(F)(F)F)cc2)nc2cc(Oc3ccnc(-c4ncc(C(F)(F)F)[nH]4)c3)ccc21 [CHIR265] (first compound 0.015 µM, partner dose 0.08 µM) | 81.6 | 60.3 | 72.6 | 54 | 56.5 | 49.1 | 43.3 | 41
COc1cc([C@@H]2c3cc4c(cc3[C@@H](O[C@@H]3O[C@@H]5CO[C@@H](C)O[C@H]5[C@H](O)[C@H]3O)[C@H]3COC(=O)[C@H]23)OCO4)cc(OC)c1O [etoposide] + Cn1cnc2c(F)c(Nc3ccc(Br)cc3Cl)c(C(=O)NOCCO)cc21 [selumetinib] (first compound 0.02 µM, partner dose 0.015 µM) | 86.3 | 87.6 | 105 | 79.4 | 87.9 | 79.9 | 77.4 | 69.3
COc1cc([C@@H]2c3cc4c(cc3[C@@H](O[C@@H]3O[C@@H]5CO[C@@H](C)O[C@H]5[C@H](O)[C@H]3O)[C@H]3COC(=O)[C@H]23)OCO4)cc(OC)c1O [etoposide] + CCCCCCCCc1ccc(CCC(N)(CO)CO)cc1 [fingolimod] (first compound 0.02 µM, partner dose 2 µM) | 86.9 | 83.1 | 80.3 | 75.7 | 79.5 | 91.9 | 95.1 | 59.7
COc1cc([C@@H]2c3cc4c(cc3[C@@H](O[C@@H]3O[C@@H]5CO[C@@H](C)O[C@H]5[C@H](O)[C@H]3O)[C@H]3COC(=O)[C@H]23)OCO4)cc(OC)c1O [etoposide] + Clc1ccc(Nc2nnc(Cc3ccncc3)c3ccccc23)cc1 [vatalanib] (first compound 0.02 µM, partner dose 2 µM) | 91.4 | 83.2 | 93.4 | 98.7 | 82.6 | 86.8 | 110 | 79.7
Cn1cnc2c(F)c(Nc3ccc(Br)cc3Cl)c(C(=O)NOCCO)cc21 [selumetinib] + CN(c1ncccc1CNc1nc(Nc2ccc3c(c2)CC(=O)N3)ncc1C(F)(F)F)S(C)(=O)=O [PF562271] (first compound 0.015 µM, partner dose 0.08 µM) | 85.8 | 90.7 | 84.8 | 75.3 | 92.6 | 60.5 | 57.3 | 68.8
Cn1cnc2c(F)c(Nc3ccc(Br)cc3Cl)c(C(=O)NOCCO)cc21 [selumetinib] + COc1ccc(C2=N[C@@H](c3ccc(Cl)cc3)[C@@H](c3ccc(Cl)cc3)N2C(=O)N2CCNC(=O)C2)c(OC(C)C)c1 [Nutlin-3] (first compound 0.015 µM, partner dose 0.1 µM) | 88.8 | 82.7 | 101 | 79 | 98 | 68.8 | 74.3 | 61
Cn1cnc2c(F)c(Nc3ccc(Br)cc3Cl)c(C(=O)NOCCO)cc21 [selumetinib] + Nc1ccn([C@@H]2O[C@H](CO)[C@@H](O)C2(F)F)c(=O)n1 [gemcitabine] (first compound 0.015 µM, partner dose 0.0004 µM) | 89.3 | 109 | 87 | 68.9 | 101 | 80.3 | 58.3 | 94.9
CCN(CC)CCNC(=O)c1c(C)[nH]c(/C=C2\C(=O)Nc3ccc(F)cc32)c1C [sunitinib] + NC1(c2ccc(-c3nc4ccn5c(=O)[nH]nc5c4cc3-c3ccccc3)cc2)CCC1 [MK2206] (first compound 0.4 µM, partner dose 0.4 µM) | 100 | 68.8 | 90.2 | 116 | 86.5 | 104 | 69.2 | 69.7
C[C@]1(O)C[C@@H](c2nc(-c3ccc4ccc(-c5ccccc5)nc4c3)c3c(N)nccn32)C1 + Nc1ncn([C@H]2C[C@H](O)[C@@H](CO)O2)c(=O)n1 [decitabine] (first compound 0.4 µM, partner dose 0.1 µM) | 87.6 | 89.1 | 89 | 98.6 | 82.2 | 85.2 | 93.8 | 68.5
